± gives the standard deviation of the averaged measurements. This is one part of the list.

The test system of the experiment is PfAP2-EXP AP2 domain (GST-tagged). The experiment can be described thus: gcPBM binding intensity (ln(normalized median fluorescence intensity)); higher = stronger DNA binding. The procedure, abridged: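 GST-tagged P. falciparum DNA-binding domains, expressed in E. coli (about 25 μg on average), were applied for 1 h to an Agilent 4 × 180k array of primer-extended double-stranded 36-bp intergenic genomic probes plus negative controls. The binding buffer was 1× PBS with 1% milk, 0.2 mg/ml BSA, 0.5% salmon testes DNA and 0.03% Triton X-100. Bound protein was detected with Alexa488 anti-GST antibody and scanned at 488 nm. Binding intensity is the highest Masliner-normalised natural-log median intensity across replicate spots of either probe orientation.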
Take “TACATTTTACTTGTTACACACATATAAAATTAACCA [CACACA_site2922]”: the “gcPBM binding intensity (ln)” value stood at 8.32 ± 0.12.
For “AGTTAATGAATAGGCACACATATATCTGTATAAATA [CACACA_site4448]”, the “gcPBM binding intensity (ln)” value is 8.63 ± 0.34.
In the case of “AGAAAAAAAAAAAGTACACACATATAATATATATAT [CACACA_site2973]”, the “gcPBM binding intensity (ln)” value was 9.38 ± 0.2.
For “CATATTGAATATTTAACACACATTTCGCTTAATTCA [CACACA_site2086]”, the “gcPBM binding intensity (ln)” value came out at 8.54 ± 0.4.
The figure for “ACACATTATAAAACTGTCGCTCATAAAGAAGAATGA [CACACA_negctrl_site999]” is 8.75 ± 0.44; for “GCAACAAAAAATCAGACATGCATTTTAAAATGAATA [TGCATGCA_site846]” it is 8.62 ± 0.2.
The figure for “GAATGAATTGTTATTAGTACACATGTGAATTATAAA [XGTACX_site6790]” is 8.64 ± 0.36; for “TTATATATAAAATACTGTACATTTAATTGATGGTTT [XGTACX_site2073]” it is 8.41 ± 0.45.
To “TATAAAAAAAAAATTTGTACATAATAATATATATAT [XGTACX_site2074]” belongs 9.23 ± 0.2.
Take “TATATAAATTTAATAACACACATATAAAAATGAATT [CACACA_site2366]”: the “gcPBM binding intensity (ln)” value stood at 8.62 ± 0.58.
The figure for “AAAAAGCAGGATTATACACACAAATATATATATGTT [CACACA_site1077]” is 8.35 ± 0.36; for “TTTTATAATAAGTATGTAAAAATTATATATATATAT [CACACA_negctrl_site711]” it is 10.1 ± 0.36.
The figure for “AACTTGTATATATACACACACACACTATCTTTTTTT [CACACA_site8601]” is 8.86 ± 0.38; for “ATATATATATAACATTGTACACACAAAGAAATAATA [XGTACX_site6440]” it is 9.67 ± 0.16; for “ATATGTTTACGTAAATGTACACGTCAGTATATTTCT [XGTACX_site8199]” it is 8.66 ± 0.35.
To “ATTTTTTTTTTTTTTATTCCCCTTTCGAAAAAAACC [CACACA_negctrl_site1139]” belongs 8.88 ± 0.47; to “CTTTTATATGTCTAATGTACGGGCAATATAAATTTG [XGTACX_site8323]”, 8.45 ± 0.45.
On to “AAAAAAAAAAAAAAAAAAATATATTATATATATATA [XGTACX_negctrl_site467]”, for which the “gcPBM binding intensity (ln)” value came out at 9.9 ± 0.071.
To “TATTTTTTTAAGTGCAGTACACTTAATTTCCCCCAA [XGTACX_site7328]” belongs 8.92 ± 0.14; to “ATTTTTTTTTTTTTTTTAAGACAAACTCTTAATTTA [CACACA_negctrl_site1389]”, 8.16 ± 0.46.
The figure for “ATTCCAAAAAAATCAAGTACTAATTTATTATATTAC [XGTACX_site3920]” is 8.26 ± 0.38; for “CGACAAAAATTTTACAGTACAGTATAAACCTTTTTA [XGTACX_site290]” it is 8.37 ± 0.39; for “TTTTTCACATTTCAGTGTACATTTTAATCATATATA [XGTACX_site915]” it is 8.63 ± 0.31.
The figure for “TACACACATTACAGATGTACATAAAATTAAAAAAAT [XGTACX_site1804]” is 8.75 ± 0.49.
As for “TCAAAAAATATATTTGCACACTCAAAAAAAAAAAAA [CACACA_site860]”, the “gcPBM binding intensity (ln)” value stood at 8.32 ± 0.33.
To “TATATATATATAAATACATGCATATAATTAATCCAT [TGCATGCA_site400]” belongs 9.88 ± 0.29.
For the sequence “ACAGGAGTATAACCTCGTACAAAATATATTTACCAT [XGTACX_site5805]”, the “gcPBM binding intensity (ln)” value came to 8.78 ± 0.69.
The figure for “TCTTTAAAAAAAAAAAAAAAAAATTCCAAATAAATA [TGCATGCA_negctrl_site538]” is 7.75 ± 0.5; for “CCTAGAAAAGCATATACACACGCGCAAAATAAAATT [CACACA_site4902]” it is 9.21 ± 0.58.
The figure for “TATATATATACATAATGTACAAGAATTTGTATTGAA [XGTACX_site627]” is 8.97 ± 0.071; for “TAAAAATAAAGAAAATGTACATAAATAAAAATAAAG [XGTACX_site2279]” it is 8.93 ± 0.29; for “TTTATGTATTTTTATGCACACATGCGTGGCTTATAT [CACACA_site4374]” it is 9.01 ± 0.34.
To “TACGGACATACTAACGGACACACGTAAGAAAAAAAA [CACACA_site602]” belongs 8.74 ± 0.61; to “AATATTCGTAATTGATGTACTTGTAATTCATACATT [XGTACX_site8314]”, 8.39 ± 0.31; to “TTTTTTTCAATATTTGCACACGATTATAATATTTAA [CACACA_site2237]”, 8.79 ± 0.36.
With “TTTATAATAAAATTTTTACACACTTTAAAAAAAAAA [CACACA_site8070]”, the “gcPBM binding intensity (ln)” value came to 8.07 ± 0.37.
To “CAGAATAATTTTATCGGTACACACTGTATGCATAAT [XGTACX_site736]” belongs 8.8 ± 0.44.
On to “TATAATAAAAATAATACACACATATATAGCAATCGT [CACACA_site3241]”, for which the “gcPBM binding intensity (ln)” value amounted to 8.87 ± 0.54.
The figure for “AATAAATATCTGTACACACACAAATAAATACATATC [CACACA_site5108]” is 8.77 ± 0.3; for “CATAAAATATAAAACACACACACATATATATATATA [CACACA_site223]” it is 10.2 ± 0.44.
As to “TTCTGTATAATATAAAAACAAAAATTAAATTAAAAC [CACACA_negctrl_site81]”, the “gcPBM binding intensity (ln)” value came out at 8.51 ± 0.34.
The figure for “TATTATATAAATATACGTACATATACTAACCTTTTA [XGTACX_site6317]” is 8.44 ± 0.3.
To “TTCCATGTAGGACATGCATGCAGTTTTTAAAATATT [TGCATGCA_site481]” belongs 10 ± 0.26; to “AAATTTTTTATTCTAATTAATATTTACACAATATAT [TGCATGCA_negctrl_site376]”, 8.18 ± 0.36.

These data come from the supplement of paper PMC11417369.
